# In all, about 33,000 sequences were measured (“E-score (-0.5 to 0.5)”: median about -0.056, highest 2% from about 0.38 on). Some of the results follow.
# Target: Stb4 (UniProt P50104)
# Assay: PBM E-score (8-mer binding enrichment) (E-score (-0.5 to 0.5)); higher = stronger / more preferred TF binding; most listed sequences are background and not binding sites
# Settings: protein concentration: 200 nM; construct: GST-DNA-binding domain
# Outline: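 Bound GST-tagged yeast transcription factors, applied at about 100-200 nM to double-stranded universal all-10-mer Agilent arrays, were detected with fluorescent anti-GST. Scans were normalised with masliner. A modified Wilcoxon-Mann-Whitney statistic, the E-score, was assigned to each ungapped eight-base word pooled with its reverse complement by the Universal PBM Analysis Suite.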
row,Sequence,PBM E-score
1,CCCATGCC,0.0716
2,GCTACCCC,-0.0436
3,CGTACCAC,0.084
4,GGCGCGAA,0.0921
5,ATATATTA,-0.0348
6,GTGAACAC,-0.15
7,AGTGACCA,-0.139
8,TCTTAGCA,-0.176
9,AGTAAGTG,-0.025
10,ACACTGTG,-0.149
11,AAAGGGGA,-0.22
12,TCCGAACA,0.447
13,ACACGCAC,-0.137
14,CGCGCGAC,0.0974
15,GTAATCAC,-0.00202
16,AGCGCACA,-0.184
17,CGTAGTTA,-0.0572
18,ATCGGGAA,0.412
19,CACGCGTG,-0.126
20,TACCCAGA,-0.145
21,CCGATCAG,0.27
22,CACCGAAC,0.224
23,ACGTTAAT,0.0187
24,CCCCGTTC,0.0486
25,AACCGTAC,0.18

row,Sequence,PBM E-score
1,GATAAGCC,0.14
2,ACCCACCG,0.0732
3,CCGCTCCA,-0.0286
4,CCCGTAAA,0.08
5,AGGCTCCA,-0.139
6,CATATTAG,-0.0945
7,GACCTTCC,0.0856
8,GACCGGTC,0.108
9,GTATGTAA,-0.0166
10,CACAATTA,-0.147
11,ACACGGAC,0.131
12,GCGGCCAA,-0.0215
13,ATTCCTGG,-0.212
14,ATTACTAG,-0.0786
15,GAAGGGGA,-0.0938
16,ACATGGGA,-0.0843
17,GGCTTGTA,-0.185
18,CGGATCAC,0.397
19,GCCTTACA,-0.311
20,AGTAAGCG,-0.0174
21,AAGTTCTC,-0.0164
22,TATGCTAA,-0.271
23,CCACCGTC,-0.0117
24,AGACAGCC,0.0408
25,CCCTTTAA,-0.0722

row,Sequence,PBM E-score
1,TATACGGA,0.148
2,CTGAACGA,-0.223
3,AAGTACCG,0.302
4,CACGCCTG,-0.292
5,CGCATTGC,-0.0233
6,ATGCCGTA,0.078
7,CTCTCTCA,-0.272
8,CATCTCAC,-0.106
9,CTCCGGCC,0.128
10,CACACACC,0.102
11,AACCGATC,0.253
12,GTCACATA,-0.0504
13,AGCACCAA,-0.0885
14,AAGGATTG,-0.0613
15,ACATCGTG,-0.24
16,CCATCCGC,0.28
17,AAGTTTGT,0.0293
18,CAAGGCAG,-0.318
19,AGGCGTGA,-0.306
20,TGGCGTAA,-0.192
21,CCTCAAGG,-0.0686
22,CGATCCAC,-0.017
23,ATGCAGGC,-0.169
24,AAAGAGGC,-0.084
25,AAGGGAAT,-0.215

row,Sequence,PBM E-score
1,ACTGACAC,0.0382
2,ATTCCACC,0.179
3,GAGCCGAA,0.423
4,ATCGAAGA,0.0116
5,CTCCTCTC,-0.101
6,GCCCCCAC,-0.17
7,CGTAATAA,-0.113
8,TACAGCCA,-0.161
9,TTCCACAA,0.0123
10,CGTATCGC,0.107
11,CGCACTAA,0.0833
12,ACGAGGAC,-0.0093
13,GGCATCAC,0.043
14,GGTATCAC,0.056
15,ACAGATAC,0.12
16,GTACAGCA,-0.0127
17,ATACACAT,-0.103
18,AGCCTAGG,-0.0301
19,ACCTTAAA,-0.054
20,AATTCGGT,0.278
21,AGGTTTTC,0.0658
22,GTCACCTA,-0.331
23,GTCAGTCA,-0.103
24,CTGTATAC,-0.188
25,ACGATTGC,-0.0598

row,Sequence,PBM E-score
1,ACTTAATC,-0.0934
2,GGGAATAA,0.233
3,ATAAAAAG,0.0325
4,AAAGCGAC,-0.0194
5,CCTATACA,-0.245
6,CCATCGCC,-0.0803
7,CACGGTGC,-0.0954
8,ACGGGGGA,0.03
9,ACGACCCG,0.251
10,GGATTTGA,0.0899
11,CGTCCCCA,0.0177
12,CCGCTATC,0.211
13,CTCTGCAC,-0.0656
14,AATACGCC,0.0807
15,AAAGCACT,0.0131
16,ACAAGGAT,0.00875
17,GAATAATA,0.00562
18,GACGGTTA,0.132
19,CTGGTGAA,-0.205
20,ACGGAACC,0.328
21,CTACGTAC,-0.0854
22,CATTATCG,-0.0461
23,ATCGGTCA,-0.0132
24,AAAAGTCA,-0.185
25,CGCTAAAG,-0.111

row,Sequence,PBM E-score
1,AAGGTACA,-0.341
2,ACTTGTGC,-0.0204
3,CAAAGAGA,-0.147
4,ATAACTCC,0.158
5,AAATCCTC,0.00135
6,TCGTTGAA,-0.0617
7,GCTGGCCC,-0.156
8,CTTTACAC,0.0285
9,CAGCAGAG,-0.208
10,AAGCGTCC,-0.193
11,AGATATGC,-0.104
12,CTGCACCC,0.0152
13,CTATTTTC,0.124
14,CGAGGAAA,0.154
15,ATGACGGC,0.0972
16,GCGCTGAC,-0.0933
17,CATATACA,-0.105
18,ACCGAGCT,0.365
19,GGATGCCC,0.0918
20,CTAGGTAC,0.0229
21,CATCCCAG,-0.134
22,ATGGTCAA,-0.164
23,CGCAGACA,-0.087
24,CATAGTGA,-0.165
25,ATATTCCA,0.0331

row,Sequence,PBM E-score
1,CAAGCGCG,-0.0205
2,GGCTAATA,0.148
3,AGAAAGGG,-0.138
4,CGAGATCC,0.275
5,ACAAGCTG,-0.292
6,AGGAGGTG,-0.278
7,ATCGAGAA,-0.157
8,CACCTAAA,-0.0736
9,AAGCAGTA,-0.173
10,GCGTAGCC,-0.0878
11,CATGGTCA,-0.155
12,CTAATTCC,0.183
13,AGTCACGG,0.219
14,AGGCGCAT,-0.035
15,CACACGCC,0.127
16,CGCTTTGC,0.11
17,GTCTTCTA,-0.0723
18,GATAGGCC,0.0357
19,GATTACCC,0.207
20,CAAAATCG,0.0159
21,ACGTCCCG,0.299
22,CCTAAGGC,-0.293
23,GACCCGAA,0.428
24,GCGAGACA,-0.137
25,CAATCATC,-0.0315

row,Sequence,PBM E-score
1,AGTTCTGG,-0.154
2,CAATCATG,-0.203
3,ACCATGCA,-0.0846
4,GATTCGCA,-0.0177
5,ACCGCCAT,-0.0369
6,AAGCCCAC,-0.123
7,CTTCGCCA,-0.131
8,CTGGCCGA,0.189
9,ACAATGGC,-0.112
10,GTACTGAA,0.0336
11,CGGATCCC,0.38
12,AGACTTGC,-0.143
13,ACGCGTCC,0.212
14,AGCATTTA,-0.108
15,CTGGCAGC,-0.168
16,AGCACCGC,-0.047
17,AGCTGAAG,-0.133
18,TAGAAGCA,-0.236
19,AGGTGTTG,-0.153
20,TCATTCAA,0.0206
21,GGAGTGAA,0.0534
22,GTGTCGGA,0.395
23,ACCGCACC,0.0783
24,AACCATAA,-0.2
25,CAATAATA,-0.041

row,Sequence,PBM E-score
1,CCCAAACC,0.0374
2,CAGCCTTA,-0.142
3,AAGTGGAA,0.0014
4,CGAACCTC,0.142
5,AACGGTGC,-0.15
6,ACTGGGCC,-0.0135
7,GGGACCTA,0.0524
8,AGAGTCTA,-0.315
9,CGCACACG,-0.053
10,GTCAAGAA,-0.188
11,ATTGTGAC,-0.139
12,ATTTAAAA,0.131
13,CTGAGGGA,-0.284
14,GCAGTTTA,-0.0965
15,GTACGCAA,-0.173
16,CCCAAGTA,-0.12
17,CCCGGCAC,0.234
18,AATCAAGG,0.0313
19,CTAGCAGA,-0.157
20,AAGTCCAT,-0.188
21,GACGCAAC,0.0213
22,ATCCATCC,0.243
23,ACAAGGTC,-0.224
24,CATCATGC,-0.231
25,AAGCGGAA,0.319

row,Sequence,PBM E-score
1,GTAAGCCA,-0.162
2,ATTTCTTG,0.0395
3,CATTATGC,0.0226
4,AGTGAAAC,-0.138
5,CCCATATA,0.0483
6,GGGACACA,-0.0587
7,CCCATCCG,0.324
8,ATATTCTC,-0.0217
9,CATATGAC,-0.132
10,GAGTTACA,0.0652
11,GCACTTCA,0.0951
12,CATCACCG,0.077
13,CGGATCTC,0.3
14,TCTGAAAA,-0.00585
15,CATATAAA,-0.288
16,GAGCCACC,0.0154
17,ATGCAAAA,-0.0417
18,CCTCGAAC,-0.249
19,CTCTCGGA,0.452
20,CGGTGAGC,0.0243
21,ATAGTGTC,-0.00418
22,CCGCTCGA,0.11
23,AACCGAAC,0.356
24,CGCAAGTA,-0.0842
25,CCTGTCTA,-0.149

row,Sequence,PBM E-score
1,AGTTCACG,0.0168
2,CCTGGCGC,0.028
3,CCGAGAAG,0.386
4,CCGACAAA,0.281
5,CGCTTCGC,0.00575
6,AAGTTCAC,0.0108
7,CAACTCCC,0.0384
8,CCCTGTAC,-0.363
9,AACCCAAT,-0.265
10,CAACCCAC,-0.0464
11,AATGGACA,-0.213
12,TGTTATAA,0.0243
13,GCGGAGAA,0.109
14,AGCTAGTG,-0.155
15,GTTAAGAA,0.0467
16,ATTCACGG,0.194
17,CCTCGTGA,-0.089
18,CACGTATG,-0.105
19,CGGAATCA,0.388
20,AAATGGAG,-0.0189
21,GGCCTTCA,-0.123
22,ACACGGGA,0.234
23,AACCGACA,0.286
24,CAATTTGG,-0.172
25,CGTACCGC,0.18

row,Sequence,PBM E-score
1,CTCCCACA,-0.073
2,GCTTGTCA,0.0226
3,AACACTTC,0.117
4,CTATGGGC,-0.154
5,ATCGGCAC,0.34
6,ACCACCCT,-0.162
7,GCCCGGGA,0.308
8,CCCCGCGC,0.103
9,AAGTCTAC,-0.153
10,CCGCACTC,0.181
11,ATAAATTC,0.0375
12,AACAAGGT,-0.134
13,TACTCCCA,-0.142
14,CAGGCTAC,-0.173
15,CGCATATC,0.00065
16,CTGGTCAC,-0.242
17,CCACACCC,0.121
18,CATGATCG,0.0688
19,GCCCCAGA,-0.0494
20,AGGAGTTG,0.0175
21,CAAAGCCC,0.0259
22,ACGTGGAC,-0.209
23,CGGCTAGA,0.338
24,ACCGGACA,0.128
25,AAGCATAT,0.0485

row,Sequence,PBM E-score
1,AACCTTCA,-0.238
2,AGCCTACC,0.0309
3,AATATACG,-0.15
4,GCAATAAA,0.0629
5,CGTGTCGA,-0.131
6,CATAACTC,0.0732
7,CAGGCAAC,-0.243
8,ATAATGTG,-0.202
9,CGTATAAG,0.0263
10,ATCTGACG,-0.213
11,AATAGATT,0.0863
12,CGATTAAG,-0.128
13,CACCCTAG,-0.227
14,ACGACAGC,-0.224
15,AATGTGGC,-0.087
16,AAGATACT,0.0549
17,GCGAGCGA,-0.0989
18,ACCCTCAG,-0.236
19,ATCGCATG,-0.117
20,GTTAATCA,-0.0342
21,ACGGGAGG,0.16
22,CAACGAAA,-0.106
23,ATTAGGAC,-0.177
24,TCTTACAA,-0.149
25,GTAAACTA,-0.0698

row,Sequence,PBM E-score
1,GCCGCTCA,-0.0616
2,GCACCAGC,-0.082
3,CGGCCCTA,0.0377
4,CCAAGTTC,0.157
5,GTGTTCCA,-0.033
6,CTTAGTAC,-0.183
7,AGAGGTGA,-0.305
8,ATCCAGAC,0.0746
9,GCACCAAA,-0.211
10,GAAAACAC,0.191
11,AGTCAACG,-0.242
12,AGTTAATC,-0.155
13,ATGGAACG,-0.00061
14,AGTTGCGG,0.247
15,ACAGTTAA,-0.0794
16,ACGCCCTA,-0.0866
17,AGCCGTGA,0.183
18,CAGATGCA,-0.36
19,AACCACGA,-0.149

# — the supplement of paper PMC3334620
